# Assay results from US20070299092A1 (Wyeth, priority 2004, published 2007).
# Values joined by “and” are separate entries in the source; they are usually repeats but may differ in a detail not shown here. Equal values may be shown once. The name of at least one read-out is uncertain.
# Biological target: T1, human KDR (VEGF-receptor-2) (Homo sapiens, UniProt P35968)
# T1 construct: beginning at Met-806; (5′-ATG GAT CCA GAT GM CTC CCA TTG) and ending at Val-1356; made in house
# Assay: KDR kinase enzyme assay (DELFIA, KDR-IC-Flag, poly(Glu4-Tyr) peptide)
# Format: biochemical
# [1] = Concentration 100 nM, ATP conc. 10 μM
# [2] = Concentration 1000 nM, ATP conc. 10 μM
# [3] = Concentration 1000 nM, ATP conc. 1000 μM
# T1 sequence (P35968 806-1356): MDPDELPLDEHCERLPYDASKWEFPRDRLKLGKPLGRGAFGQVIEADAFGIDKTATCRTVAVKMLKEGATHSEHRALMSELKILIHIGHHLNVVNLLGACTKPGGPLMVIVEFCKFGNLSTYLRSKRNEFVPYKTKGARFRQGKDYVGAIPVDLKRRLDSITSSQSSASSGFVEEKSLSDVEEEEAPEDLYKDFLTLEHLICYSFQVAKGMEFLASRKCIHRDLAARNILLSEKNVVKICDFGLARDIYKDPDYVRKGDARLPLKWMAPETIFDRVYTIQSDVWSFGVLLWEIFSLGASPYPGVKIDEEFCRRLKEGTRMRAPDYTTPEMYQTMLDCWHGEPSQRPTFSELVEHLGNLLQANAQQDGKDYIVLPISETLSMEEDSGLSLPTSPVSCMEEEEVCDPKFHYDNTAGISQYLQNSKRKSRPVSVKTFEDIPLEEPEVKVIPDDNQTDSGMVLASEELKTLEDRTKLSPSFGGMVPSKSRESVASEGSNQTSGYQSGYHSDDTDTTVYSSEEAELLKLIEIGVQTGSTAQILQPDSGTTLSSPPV
SMILES,% Inhibition [1],% Inhibition [2],% Inhibition [3]
"CCC1=CC(=O)C(Nc2ncnc3cc(OC)c(OC)cc23)=CC1=O [Example 8, 2-[(6,7-dimethoxy-4-quinazolinyl)amino]-5-ethylbenzo-1,4-quinone]",45%,85%,76%
"COc1cc2ncnc(NC3=CC(=O)C(C)=CC3=O)c2cc1OC [Example 4, 2-[(6,7-dimethoxy-4-quinazolinyl)amino]-5-methylbenzo-1,4-quinone]",3% and 13%,,
"COCCOc1cc2ncnc(NC3=CC(=O)C(Oc4ccc(C(F)(F)F)cc4)=CC3=O)c2cc1OC [Example 36, 2-{[6-methoxy-7-(2-methoxyethoxy)quinazolin-4-yl]amino}-5-[4-(trifluoromethyl)phenoxy]benzo-1,4-quinone]",72%,,
"COc1cc2ncnc(NC3=CC(=O)C(N4CCOCC4)=CC3=O)c2cc1OC [Example 84, 2-[(6,7-dimethoxyquinazolin-4-yl)amino]-5-morpholin-4-ylbenzo-1,4-quinone]",5% and 1%,,
"COCCOc1cc2ncnc(NC3=CC(=O)C(N(C)c4ccc(N(C)C)cc4)=CC3=O)c2cc1OC [Example 75, 2-[[4-(dimethylamino)phenyl](methyl)amino]-5-{[6-methoxy-7-(2-methoxyethoxy)quinazolin-4-yl]amino}benzo-1,4-quinone]",38%,,
"COCCOc1cc2ncnc(NC3=CC(=O)C(Oc4cccnc4)=CC3=O)c2cc1OC [Example 91, 2-{[6-methoxy-7-(2-methoxyethoxy)quinazolin-4-yl]amino}-5-(pyridin-3-yloxy)benzo-1,4-quinone]",85%,,
"COc1cc2ncnc(NC3=CC(=O)C4(C)OC4C3=O)c2cc1OC (stereo not shown) [Example 5, 4-[(6,7-dimethoxy-4-quinazolinyl)amino]-1-methyl-7-oxabicyclo[4.1.0]hept-3-ene-2,5-dione]",16%,,
"COCCOc1cc2ncnc(NC3=CC(=O)C(Oc4cccc(C(C)=O)c4)=CC3=O)c2cc1OC [Example 34, 2-(3-acetylphenoxy)-5-{[6-methoxy-7-(2-methoxyethoxy)quinazolin-4-yl]amino}benzo-1,4-quinone]",37%,,
"COCCOc1cc2ncnc(NC3=CC(=O)C(Oc4cccc(C#N)c4)=CC3=O)c2cc1OC [Example 27, 3-[(4-{[6-methoxy-7-(2-methoxyethoxy)quinazolin-4-yl]amino}-3,6-dioxocyclohexa-1,4-dien-1-yl)oxy]benzonitrile]",65%,,
"COCCOc1cc2ncnc(NC3=CC(=O)C(Oc4ccccc4C)=CC3=O)c2cc1OC [Example 90, 2-{[6-methoxy-7-(2-methoxyethoxy)quinazolin-4-yl]amino}-5-(2-methylphenoxy)benzo-1,4-quinone]",74% and 82% and 92% and 95%,95%,
COCCOc1cc2ncnc(NC3=CC(=O)C(Sc4nccs4)=C(OC)C3=O)c2cc1OC [Example 20],80%,94%,95%
"COc1cc2ncnc(NC3=CC(=O)C(Oc4ccccc4)=CC3=O)c2cc1OC [Example 95, 2-[(6,7-dimethoxyquinazolin-4-yl)amino]-5-phenoxybenzo-1,4-quinone]",83%,,
"COc1cc2ncnc(NC3=CC(=O)C=C(C)C3=O)c2cc1OC [Example 7, 2-[(6,7-dimethoxy-4-quinazolinyl)amino]-6-methylbenzo-1,4-quinone]",83% and 94%,94% and 95%,
"COCCOc1cc2ncnc(NC3=CC(=O)C(N(C)c4ccc(OC)cc4)=CC3=O)c2cc1OC [Example 78, 2-{[6-methoxy-7-(2-methoxyethoxy)quinazolin-4-yl]amino}-5-[(4-methoxyphenyl)(methyl)amino]benzo-1,4-quinone]",53% and 27%,90% and 62%,74% and 95%
"COc1cc2ncnc(NC3=CC(=O)C(Cl)=CC3=O)c2cc1OC [Example 2, 2-chloro-5-[(6,7-dimethoxy-4-quinazolinyl)amino]benzo-1,4-quinone]",77%,,
"COCCOc1cc2ncnc(NC3=CC(=O)C(N(C)c4cccc(F)c4)=CC3=O)c2cc1OC [Example 74, 2-[(3-fluorophenyl)(methyl)amino]-5-{[6-methoxy-7-(2-methoxyethoxy)quinazolin-4-yl]amino}benzo-1,4-quinone]",37%,,
"COCCOc1cc2ncnc(NC3=CC(=O)C4(C)OC4C3=O)c2cc1OC (stereo not shown) [Example 106, 4-{[6-methoxy-7-(2-methoxyethoxy)-4-quinazolinyl]amino}-1-methyl-7-oxabicyclo[4.1.0]hept-3-ene-2,5-dione]",,77%,
